Binding data for two substances are collected here from PMC12889043.

Amino acid sequences for entries named in this document (tags omitted).
UniProt P19474: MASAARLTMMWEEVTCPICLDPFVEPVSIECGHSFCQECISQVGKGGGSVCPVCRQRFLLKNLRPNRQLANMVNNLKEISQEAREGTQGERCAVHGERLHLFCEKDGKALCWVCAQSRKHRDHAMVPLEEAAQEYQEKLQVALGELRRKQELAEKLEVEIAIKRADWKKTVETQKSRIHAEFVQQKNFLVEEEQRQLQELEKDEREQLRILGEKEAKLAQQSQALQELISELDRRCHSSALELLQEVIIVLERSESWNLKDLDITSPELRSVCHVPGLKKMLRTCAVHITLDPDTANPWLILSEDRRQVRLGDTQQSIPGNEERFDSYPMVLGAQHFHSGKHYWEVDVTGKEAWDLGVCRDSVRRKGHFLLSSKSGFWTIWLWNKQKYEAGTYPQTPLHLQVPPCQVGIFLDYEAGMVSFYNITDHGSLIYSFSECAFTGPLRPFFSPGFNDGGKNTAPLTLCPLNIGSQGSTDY
UniProt Q7Z434: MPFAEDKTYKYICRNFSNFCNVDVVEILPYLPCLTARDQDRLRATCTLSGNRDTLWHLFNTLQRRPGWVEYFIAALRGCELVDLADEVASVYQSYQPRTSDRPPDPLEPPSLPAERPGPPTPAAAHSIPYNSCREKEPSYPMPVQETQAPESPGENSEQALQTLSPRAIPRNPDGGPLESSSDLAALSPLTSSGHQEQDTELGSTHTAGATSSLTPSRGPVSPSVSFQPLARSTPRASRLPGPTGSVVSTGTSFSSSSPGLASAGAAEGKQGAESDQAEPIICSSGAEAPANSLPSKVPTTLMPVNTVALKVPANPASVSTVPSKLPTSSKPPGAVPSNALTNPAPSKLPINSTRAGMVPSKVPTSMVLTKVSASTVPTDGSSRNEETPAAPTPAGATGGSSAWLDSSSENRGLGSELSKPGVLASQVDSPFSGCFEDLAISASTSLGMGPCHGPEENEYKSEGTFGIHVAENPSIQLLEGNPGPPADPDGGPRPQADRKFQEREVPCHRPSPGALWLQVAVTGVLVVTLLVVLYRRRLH

Results are given in words; binding and its absence hold for the method and conditions named. Binding seen in cells or lysates may run through a third protein. Some entries that bind do so weakly or less than the wild type. Tags and fused reporters may be left off the sequences shown.

The target in assay [1] is T1, HA-IKKε (IκB kinase epsilon) (UniProt Q14164).
T1 sequence: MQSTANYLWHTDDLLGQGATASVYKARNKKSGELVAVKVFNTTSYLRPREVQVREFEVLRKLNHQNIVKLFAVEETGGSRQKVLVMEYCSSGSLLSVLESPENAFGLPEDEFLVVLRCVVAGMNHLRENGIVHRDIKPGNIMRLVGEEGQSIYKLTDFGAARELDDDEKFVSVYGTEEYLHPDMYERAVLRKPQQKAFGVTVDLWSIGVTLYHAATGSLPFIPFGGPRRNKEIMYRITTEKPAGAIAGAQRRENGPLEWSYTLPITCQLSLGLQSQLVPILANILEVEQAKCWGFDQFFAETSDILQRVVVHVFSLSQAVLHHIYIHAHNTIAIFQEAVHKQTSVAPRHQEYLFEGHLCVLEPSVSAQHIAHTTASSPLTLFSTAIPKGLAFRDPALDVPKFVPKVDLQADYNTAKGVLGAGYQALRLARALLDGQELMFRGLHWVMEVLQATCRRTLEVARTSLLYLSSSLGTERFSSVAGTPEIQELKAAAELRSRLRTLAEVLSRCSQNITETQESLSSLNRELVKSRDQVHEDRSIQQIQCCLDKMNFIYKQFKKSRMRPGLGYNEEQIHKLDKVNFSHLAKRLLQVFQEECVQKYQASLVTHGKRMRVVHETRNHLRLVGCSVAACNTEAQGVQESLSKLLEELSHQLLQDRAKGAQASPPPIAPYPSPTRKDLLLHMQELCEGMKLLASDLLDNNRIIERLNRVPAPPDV
The assay is described as follows: co-IP; HEK293T transfected with Myc-hRND3, HA-IKKε and Flag-TRIM21; after 12 h infected with EMCV at MOI 0.01 for 12 h; IP with anti-HA antibody (1:100); blot with anti-Flag.

The target in assay [2] is T2, Flag-tagged full-length human RND3 (pcDNA3.1-Flag-hRND3) (human) (UniProt P61587).
T2 sequence: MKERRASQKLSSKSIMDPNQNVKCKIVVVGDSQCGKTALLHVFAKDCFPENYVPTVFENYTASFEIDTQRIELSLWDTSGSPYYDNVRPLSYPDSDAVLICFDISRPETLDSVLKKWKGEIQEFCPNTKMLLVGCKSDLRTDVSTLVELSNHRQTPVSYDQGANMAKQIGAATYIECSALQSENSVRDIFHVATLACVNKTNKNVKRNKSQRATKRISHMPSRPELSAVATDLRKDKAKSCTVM
The assay is described as follows: co-IP; HEK293T co-transfected with Flag-RND3 and one HA-tagged adaptor, 24 h; RIPA lysate; anti-Flag agarose affinity gel overnight at 4 C, washed with cold TBS; blot with anti-HA.

As for Flag-TRIM21 (from UniProt P19474 1-475), the binding result in assay [1] is recorded as “binds”.

Regarding HA-MAVS (from UniProt Q7Z434 1-540), in assay [2], the binding entry is on record as “no binding”.
